Results published in PubChem BioAssay AID1508642 (National Center for Advancing Translational Sciences (NCATS), 2021).
Hit rate of the full screen: of about 43,000 compounds, about 200 (0.47%) were called active. Roughly 12% stayed inconclusive and do not appear here. Calls follow the shape of the dose curve; as a rule, active = well fitted cell-killing curve with a large enough effect; inconclusive = small, poorly fitted or top-dose-only effect, or effect the other way; inactive = flat fitted curve, though single readings scatter. The list shows a part of the results.

Experiment: Cell viability qHTS assay in S16 Pmp22-F2sN cells; also: nearly all actives have a fitted effect of over 65% in size
Settings: S16 Pmp22-F2sN Schwann cells (luciferase reporters placed in the Pmp22 gene) viability, CellTiter-Glo, 24 h; series mostly up to 57.5 µM; activity change, negative = cytotoxicity: at the top concentration
How it was run: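 Rat S16 Schwann reporter line, 24 h treatment with library compounds delivered at 23 nL per well. Cell viability by CellTiter-Glo luminescence.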
% is scaled to controls: 0 for no effect and ±100 for the full control effect.

Compound | activity change, negative = cytotoxicity
COc1cc(-c2nc3sccn3c2Nc2c(C)cccc2C)ccc1O | inactive: 2.46%
Cc1c(CCNC(=O)c2c(F)cccc2F)sc2nc(-c3ccc(F)cc3)nn12 | inactive: 5.17%
CCOc1ccc(CCn2c3c(c(=O)[nH]c2=O)C(NC(=O)c2cccc(F)c2)(C(F)(F)F)C(=O)N3)cc1OCC (configuration not stated) | inactive: 7.79%
CC(=O)N1CCCC1c1nc2ccccc2n1Cc1ccccc1Cl (configuration not stated) | inactive: 1.98%
O=C1Cc2cc(S(=O)(=O)N3CCN(c4cccc(Cl)c4)CC3)ccc2N1 | inactive: -0.126%
CC(=O)N1CCCc2ccc(NS(=O)(=O)c3cccc(Cl)c3)cc21 | inactive: -2.45%
CCn1c(C(=O)NCCc2ccc(S(N)(=O)=O)cc2)cc2sc(Cl)cc21 | inactive: 2.71%
O=C(c1ccc2c(Cl)c3c(nc2c1)CCCC3)N1CCN(c2ccc(Cl)cc2)CC1 | inactive: 17%
COc1ccc(N2CCN(CCCNC(=O)C3COc4ccccc4C3)CC2)cc1 (configuration not stated) | inactive: -22.2%
CCOc1ccc(-n2c(=O)c3c4c(sc3n(CC(=O)NC(C)CC)c2=O)CCCCC4)cc1 (configuration not stated) | inactive: 25.2%
Cc1ccc(CNC(=O)CSc2nc3c(sc4ccccc43)c(=O)n2CCCC(=O)NCCO)cc1 | inactive: 1.23%
O=C(Nc1ccc(F)cc1)Nc1csc2c1CCCC2 | inactive: 0.633%
Cc1cc(=O)n2nc(N(C)CC(=O)NCc3ccccc3C)sc2n1 | inactive: 0.642%
CCCC(=O)Nc1cccc(OCc2cc(=O)n3cccc(C)c3n2)c1 | inactive: 20.5%
O=C(NCCc1ccccc1)c1cc(Nc2ccccc2)nc2ccccc12 | inactive: 18.1%
COc1ccc(CCCc2nnc(SCC(=O)Nc3cccc(F)c3C)o2)cc1 | inactive: 3.68%
CCOCCc1nn2c(=O)cc(COC(=O)c3ccccc3OC)nc2s1 | inactive: 1.27%
CCOC(=O)C1CCCN(C(=O)c2ccc3c(c2)sc2nc(-c4cccc(OC)c4)cn23)C1 (configuration not stated) | inactive: -22.3%
COCCCn1c(SCc2cccc(Cl)c2)nc2c(sc3ccccc32)c1=O | inactive: 4.21%
COc1ccc(N(CC(=O)Nc2cccc(Cl)c2)S(=O)(=O)c2c(C)[nH]c(=O)[nH]c2=O)cc1 | inactive: -0.0549%
CCOc1ccc(Nc2nc(-c3cccc(Cl)c3)c3c(n2)-c2ccccc2OC3)cc1 | inactive: 1.05%

Compound | activity change, negative = cytotoxicity
CCOCCc1nnc(NC(=O)C(=O)c2cc(C)n(-c3ccc(C)cc3C)c2C)s1 | inactive: -14.4%
COc1cc(NC(=O)CC2C(=O)N(c3ccccc3)C(=O)N2Cc2ccc(F)cc2)cc(OC)c1 (configuration not stated) | inactive: 1.39%
CCc1ccccc1NC(=O)N1CCOc2ccccc21 | inactive: -4.54%
O=C(Cn1ncc2c([nH]c3ccccc32)c1=O)NCCCN1CCN(c2ccc(F)cc2)CC1 | inactive: -7.54%
COc1ccc(OC)c(NC(=O)CSc2nc(=O)n(CCN(C)C)c3c2CCC3)c1 | inactive: 8.88%
CC1CCc2c(sc(NC(=O)Cc3ccccc3)c2C(=O)Nc2ccc(Cl)cc2)C1 (configuration not stated) | inactive: -14.4%
CCc1ccc(-n2c(=O)c3c4c(sc3n(Cc3ccccc3C#N)c2=O)CCCC4)cc1 | inactive: -8.14%
CCCn1c2ccccc2c2cnn(CC(=O)Nc3cc(C)c(Cl)cc3OC)c(=O)c21 | inactive: 3.21%
Cc1cn2c(=O)cc(COC(=O)c3ccc(NC(=O)COc4ccccc4C)cc3)nc2s1 | inactive: 6.15%
CCOC(=O)c1cc(-c2ccccc2)n(-c2cccc(C(=O)Nc3cccc(SC)c3)c2)c1C | inactive: 4.17%
Cc1ccc(-c2nn3c(-c4ccccc4C)nnc3c3ccccc23)cc1 | inactive: 5.63%
COc1ccc(CCC(=O)NCCc2csc(-c3ccc(F)cc3)n2)cc1 | inactive: 2.37%
CCc1ccc(NC(=O)CSc2ccnc(=O)[nH]2)cc1 | inactive: 3.55%
O=C(NCCc1ccccc1)c1ccc2c(c1)N(Cc1ccc(Cl)cc1)C(=O)CS2 | inactive: -9.21%
Cc1nn(C)c(C)c1S(=O)(=O)N(CC(=O)NCCc1ccccc1)c1ccc(C(C)C)cc1 | inactive: -13.3%
Cc1cc2c(cc1S(=O)(=O)NCc1ccc(F)cc1)n(C)c(=O)c(=O)n2C | inactive: -2.77%
Cc1cccc(N2C(=O)CC(c3ccc(F)cc3)C3=C2COC3=O)c1 (configuration not stated) | inactive: -2.34%
COc1ccc(NC(=O)c2ccco2)cc1NC(=O)COc1ccc(C)c(C)c1 | inactive: 1.85%
CCCCNC(=O)c1nn(C)c2c1CSc1ccccc1-2 | inactive: 15%
Cc1ccccc1C(=O)Nc1cc(C)c(O)c(-c2nc3ccccc3o2)c1 | inactive: 17%
CCCCCCn1nnc2sc(-c3ccccc3)cc2c1=O | inactive: 0.327%

Compound | activity change, negative = cytotoxicity
CC1CCN(CC2CCN(C(=O)NCc3ccccc3)CC2)CC1 | inactive: 2.38%
CCOc1ccc(-c2nc(Cn3c(=O)cc(C)c4c(C)nn(-c5ccccc5)c43)c(C)o2)cc1 | inactive: -1.64%
CCC1CN(C(=O)Nc2ccccc2F)c2cc(C)ccc2O1 (configuration not stated) | inactive: 2.55%
COc1ccc(CNC(=O)CCNS(=O)(=O)c2ccc3c(c2)oc(=O)n3C)cc1 | inactive: -0.913%
COc1ccc(C2CC(=O)c3cc(-c4nc(-c5cccc([N+](=O)[O-])c5)cs4)c(=O)n(-c4ccccc4)c3C2)cc1 (configuration not stated) | inactive: 3.15%
CCN1c2ccccc2-c2nc(SCC(=O)Nc3cccc(C)c3C)ncc2S1(=O)=O | inactive: -19.6%
CCn1cc(C(=O)N(C)Cc2ccccc2)c(=O)c2cc(S(=O)(=O)N3CCc4ccccc4C3)ccc21 | inactive: -0.509%
COc1cc(C)ccc1OCCSc1nc2ccc(NC(=O)c3ccco3)cc2s1 | inactive: -15.2%
CCOC(=O)c1cccc(NC(=O)CCSCCc2ccccn2)c1 | inactive: 7.66%
COc1cccc(CNC(=O)c2cc3c(-c4ccccc4F)nn(C)c3s2)c1 | inactive: -18.8%
COc1cc(C2Nc3ccccc3-c3cc(C)nn32)ccc1O (configuration not stated) | inactive: 0.945%
Cc1ccc(NC(=O)Cn2nc(-c3ccccc3)nc(Cc3ccc(Cl)cc3)c2=O)cc1 | inactive: -0.235%
Cc1noc(-c2ccc(-c3noc(-c4ccc(F)cc4)n3)cc2)n1 | inactive: -1.69%
COCCn1c(SCC(=O)Nc2cc(Cl)ccc2OC)nc2c([nH]c3ccccc32)c1=O | inactive: -6.56%
O=S(=O)(c1ccc(Br)s1)N1CCN(c2cccc(C(F)(F)F)c2)CC1 | inactive: 1.58%
CCN(CC)c1ncnc2c1cnn2-c1cc(Cl)ccc1C | inactive: -6.54%
COc1cc(C(CC(=O)Nc2ccc(C)c(F)c2)N2Cc3ccccc3C2=O)cc(OC)c1OC (configuration not stated) | inactive: 9.41%
CCOc1ccccc1NC(=O)C1CCN(S(=O)(=O)c2c(C)noc2/C=C/c2ccco2)CC1 | inactive: -0.0398%
O=C1OCC2=C1C(c1cccc(Cl)c1)CC(=O)N2c1ccc(C(F)(F)F)cc1 (configuration not stated) | inactive: 12.6%
Cc1cccc(Cn2cc(S(=O)(=O)c3cccc(Cl)c3)c(=O)c3cc(F)c(N4CCOCC4)cc32)c1 | inactive: 9.87%
